This is an account of results in the supplement of paper PMC3334620.

In all, about 33,000 sequences were measured (“E-score (-0.5 to 0.5)”: median about -0.035, highest 2% from about 0.34 on). The list shows a part of the results.

The target in the assay is T1, Mot3 (UniProt P54785).
T1 sequence: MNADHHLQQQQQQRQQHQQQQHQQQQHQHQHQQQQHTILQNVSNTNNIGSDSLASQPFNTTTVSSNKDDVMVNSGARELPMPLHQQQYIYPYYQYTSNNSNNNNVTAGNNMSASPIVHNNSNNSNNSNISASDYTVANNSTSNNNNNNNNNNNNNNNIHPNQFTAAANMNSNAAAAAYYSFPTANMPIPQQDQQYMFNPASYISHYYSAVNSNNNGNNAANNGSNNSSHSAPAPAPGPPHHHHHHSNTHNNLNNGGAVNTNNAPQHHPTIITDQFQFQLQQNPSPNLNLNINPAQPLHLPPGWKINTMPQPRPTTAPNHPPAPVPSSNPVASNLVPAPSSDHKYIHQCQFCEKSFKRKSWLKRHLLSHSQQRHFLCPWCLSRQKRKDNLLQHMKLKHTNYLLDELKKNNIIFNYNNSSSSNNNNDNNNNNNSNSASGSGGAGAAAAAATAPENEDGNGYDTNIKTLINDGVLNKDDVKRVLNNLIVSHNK
The experiment in a line: PBM E-score (8-mer binding enrichment) (E-score (-0.5 to 0.5)); higher = stronger / more preferred TF binding; most listed sequences are background and not binding sites. The following applies: protein concentration: 200 nM; construct: GST-full length. The method, boiled down: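 Detection of bound protein used fluorescent anti-GST, with scans normalised by masliner. The proteins were GST-tagged yeast transcription factors applied at about 100-200 nM to universal all-10-mer Agilent arrays made double-stranded by primer extension. Each ungapped eight-base word, pooled with its reverse complement, was scored with an E-score from the Universal PBM Analysis Suite.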
ACTATAAT: the “PBM E-score” value is 0.111. CCCAACAC: the “PBM E-score” value turned out to be 0.00126. As to CCACAAAA, the “PBM E-score” value is 0.0078. For ACGTTGCG, the “PBM E-score” value was determined as 0.0802. To AGGAAATC belongs 0.373; to AACGCCGA, 0.0249; to CTGCGACC, -0.239. To AGCAGTGG belongs -0.344; to AGGTCTGA, -0.0823; to TTATCCAA, 0.0557. To GACGGAAC belongs -0.263; to GACAGCGC, -0.0391.

Turning to AGAAAAAT, the “PBM E-score” value is 0.133. The same measure for ACTCGAGG: -0.101; for CCTTGCCG: -0.146. Regarding AGCGGAAC, the “PBM E-score” value is -0.185. For the sequence CTAGCTTA, the “PBM E-score” value was -0.111. Take ATAGCGGA: the “PBM E-score” value was -0.229. Turning to GGACAATA, the “PBM E-score” value is -0.0384. The same measure for CCAAGCAA: -0.0858.

For CACGTGCC, the “PBM E-score” value amounted to 0.318. To CTGTTTCC belongs 0.103; to AGTTAGAG, -0.21; to AAGTAGCT, -0.0175.

GTTGTATA: the “PBM E-score” value was 0.288. To AAGAGGCA belongs 0.391; to AATGATCC, -0.0661. For AGAACAAG, the “PBM E-score” value is 0.212. For the sequence ACGTGTGC, the “PBM E-score” value was 0.119. In the case of AAAGTCGG, the “PBM E-score” value was -0.0308.

Regarding AGAATTGA, the “PBM E-score” value stood at 0.0762. To GTTAGTGA belongs 0.16; to CCATGGCA, -0.113; to TAGGCGCA, 0.0665. The same measure for GAAACAGC: -0.0498; for CCGCTAAC: -0.0566; for CACAATCG: 0.018.

Regarding GCGGAGTA, the “PBM E-score” value was -0.148. To ACCCGGGA belongs -0.0304. With CTGTCATA, the “PBM E-score” value came to 0.102.

As to ACCGGTCG, the “PBM E-score” value is -0.123. To CGAGAAGC belongs -0.128; to CCCATCAC, -0.0288.

On to CCCTGATC, for which the “PBM E-score” value is -0.215. To ATCACAGC belongs 0.0381; to AATGGGCC, -0.258. The same measure for ACTCCGCA: -0.183; for ACAGAACA: 0.145.

As to CCTGCTAC, the “PBM E-score” value is 0.146. To CAAATGTA belongs 0.272; to CCGGGTGC, -0.261. To GCTAAATA belongs 0.0782; to CTATCTTA, 0.0479; to CTCAACAG, 0.127. To GTCAGAAC belongs -0.0741. In the case of CAATATCA, the “PBM E-score” value stood at 0.0343.

As for CAGCGGAA, the “PBM E-score” value is -0.213. The same measure for AGGTTACT: 0.0805; for CACCCCGG: -0.244. To GAAGACGC belongs -0.0204; to AATCACAC, 0.199. To GGAGTTAC belongs 0.0562; to GACGATTA, 0.0564; to CCGACCCG, -0.117. Take GGTCCTCA: the “PBM E-score” value is -0.167. Turning to AATCATGT, the “PBM E-score” value stood at 0.329.

Take AGTCACCA: the “PBM E-score” value came out at 0.00724.

On to ATGCCTTA, for which the “PBM E-score” value was 0.342. The same measure for ATATTTGA: -0.0669; for AGGTGACA: -0.147; for ACATAACA: 0.332. In the case of AATGGCAG, the “PBM E-score” value is -0.0791. ATGGTGCG: the “PBM E-score” value was -0.151. The same measure for ACGGCCCT: -0.224. The same measure for CTAAGCTC: -0.0294; for CACTTAAG: 0.19; for GAGTTTGC: 0.0403. As for GCACGCCC, the “PBM E-score” value was -0.115. On to GCCCATGA, for which the “PBM E-score” value is -0.215.

As to ACAGAGCG, the “PBM E-score” value was -0.052. The same measure for ATTGTGCG: -0.0567; for ACTTAAGT: 0.133; for ACTGTCTC: -0.138. For TCTGGACA, the “PBM E-score” value was 0.0548. To CATGAGTA belongs 0.00289. AGGATTCG: the “PBM E-score” value was -0.194.
